According to paper PMC6919601, “Identification of Plasmodium dipeptidyl aminopeptidase allosteric inhibitors by high throughput screening” (PLoS ONE, 2019):
In all, about 110,000 compounds went through this assay and about 230 (0.21%) showed an effect of 50% or more. This is one part of the list.

Each compound was assayed against DPAP1 (Plasmodium falciparum, UniProt Q8IIJ9) (assay: primary screen, percent inhibition; read by cleavage of a fluorogenic dipeptide substrate; higher = more effect of the substance).
DPAP1, sequence (Q8IIJ9 whole entry, looked up): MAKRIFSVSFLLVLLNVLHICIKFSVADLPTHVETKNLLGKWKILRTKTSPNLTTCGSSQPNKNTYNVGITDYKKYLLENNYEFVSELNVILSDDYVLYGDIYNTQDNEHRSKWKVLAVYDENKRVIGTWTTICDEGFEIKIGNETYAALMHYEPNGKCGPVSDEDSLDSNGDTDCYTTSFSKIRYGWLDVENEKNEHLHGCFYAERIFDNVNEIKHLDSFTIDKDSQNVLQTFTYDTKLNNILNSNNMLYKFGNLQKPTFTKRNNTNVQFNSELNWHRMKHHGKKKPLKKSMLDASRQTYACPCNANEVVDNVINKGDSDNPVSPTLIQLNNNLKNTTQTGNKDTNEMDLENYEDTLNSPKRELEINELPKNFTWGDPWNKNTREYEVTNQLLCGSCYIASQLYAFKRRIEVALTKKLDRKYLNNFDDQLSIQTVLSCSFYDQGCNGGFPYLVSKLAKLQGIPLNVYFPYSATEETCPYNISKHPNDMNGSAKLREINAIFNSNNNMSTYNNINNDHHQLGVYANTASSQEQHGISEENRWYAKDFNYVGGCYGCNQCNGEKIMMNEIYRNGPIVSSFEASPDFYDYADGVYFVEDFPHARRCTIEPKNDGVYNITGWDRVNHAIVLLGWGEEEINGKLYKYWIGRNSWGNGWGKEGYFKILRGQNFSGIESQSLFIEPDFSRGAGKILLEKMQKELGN
Set-up: species or system P. falciparum D10 trophozoite lysates; single well
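Further: 30 min substrate incubation versus DMSO and 10 µM JCP410 controls.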

SMILES	% Inhibition @ 10 uM
O=C(COc1ccc(Cl)cc1Cl)NC(Cc1ccccc1)C(=O)O (stereo not drawn)	-2.66%
COc1ccc(CCNS(=O)(=O)c2ccc3[nH]c4c(c3c2)CCCC4)cc1OC	-3.88%
CCC(C)NC(=O)c1cnn(-c2cccc(C)c2)c1-n1cccc1 (stereo not drawn)	-4.36%
CCN1C(=O)N/C(=C/c2cccc(OC)c2OC(C)C)C1=O	-0.473%
Cn1c(=O)n(Cc2cccc(Cl)c2)c(=O)c2c1ncn2Cc1ccccc1	-2.28%
CCc1nn(CC(=O)NC(COc2ccc(OC)cc2)C(C)C)c(=O)c2ccccc12 (stereo not drawn)	-2.84%
Cc1cccc(C(=O)Nc2ccc(S(N)(=O)=O)cc2)c1	9.59%
CCOC(=O)CN1CCC(Cc2ccccc2)CC1	-2.32%
CC1=C(C(=O)Nc2ccc(Cl)cc2)C(c2cccs2)NC(S)=N1 (stereo not drawn)	-2.97%
COc1ccc(NC(=O)COc2ccccc2)cc1NC(=O)c1ccco1	-1.63%
CCCCOc1ccc(C(=O)Nc2ccc(N3CCN(S(C)(=O)=O)CC3)cc2)cc1	-4.12%
Cc1cc(C)n2nc(CNS(=O)(=O)c3ccc(F)c(C)c3)nc2n1	-3.96%
Cc1cc(C)cc(NC(=O)Cn2cnc3ccccc3c2=O)c1	1.96%
N#Cc1ccc(S(=O)(=O)N2CCC(n3c(O)nc4ccccc43)CC2)cc1	-0.671%
CCOC(=O)C1=C(C)N=c2s/c(=C/c3cccs3)c(=O)n2C1c1ccccc1 (stereo not drawn)	12.9%
O=C(NCc1cccs1)C1CCCN(c2nc3ccccc3o2)C1 (stereo not drawn)	5.23%
COc1cccc(-c2ccc(C#N)c(SCC(=O)Nc3ccc(C(C)=O)cc3)n2)c1	-0.68%
O=C(O)c1ccc(NC(=O)c2ccc(F)c(S(=O)(=O)N3CCOCC3)c2)cc1	-2.99%
Cn1cccc1Cc1nnc(SCC(=O)NCc2ccc3c(c2)OCO3)n1CCc1ccccc1	-7.65%
CCCCc1cc(CN2CCCCC2)[nH]n1	1.9%
Cc1ccc(CN2CCN(CC(=O)NCCc3ccc(Cl)cc3)C2=O)cc1	0.675%
Nc1c(C(=O)c2ccc(Br)cc2)sc2nccc(Nc3ccccc3)c12	0.774%
Cc1c(C(=O)O)oc2ccc3c(c12)C(O)CC(C)(C)O3 (stereo not drawn)	-1.75%
O=C(Nc1ccc(F)cc1F)c1ccccc1Br	-5.11%
COc1cccc(C(=O)NC2(C(F)(F)F)NC(=O)N(Cc3ccccc3)C2=O)c1 (stereo not drawn)	-3.39%

SMILES	% Inhibition @ 10 uM
CCOC(=O)C1=CN(Cc2ccc(F)cc2)C=C(C(=O)OCC)C1c1cc(OC)c(OC)cc1OC	-3.23%
COc1ccc(Cl)cc1NC(=O)C1=C(C)NC(=O)NC1c1ccccc1 (stereo not drawn)	-0.598%
Cc1ccc(Cl)cc1NC(=O)CC(C(=O)O)N1CCNCC1 (stereo not drawn)	3.58%
O=C(CCCC(=O)c1ccccc1)NCCc1ccccc1F	-3.21%
COc1cc(CN2CCCN(C)CC2)cc(OC)c1	-1.62%
CC(C)C[C@H](Nc1nc(-c2ccncc2)cs1)C(=O)NCC#N	-3.04%
O=C1NCCN1Cc1ccc(F)cc1Cl	3.23%
COc1cc2nc(S)n3nc(C(C)Oc4ccc(Br)cc4)nc3c2cc1OC (stereo not drawn)	-0.499%
CCCCCOC(=O)C1=C(C)N(C)C(=O)NC1c1ccccc1Cl (stereo not drawn)	0.736%
Cc1ccc(CNc2oc(COc3ccccc3F)nc2C#N)cc1	0.726%
Cc1[nH]nc2c1C(c1ccc(O)cc1)NC2=O (stereo not drawn)	-5.22%
COc1cccc(C(=O)N2CCN(Cc3ccccc3Br)CC2)c1	2.3%
CC(CNC(=O)c1cc2c(s1)CS(=O)(=O)C2)c1ccccc1 (stereo not drawn)	-5.54%
Fc1ccc(CN2CCN(c3ccccc3)CC2)cc1Br	-1.86%
CC1CCN(CC(C)C(=O)c2ccccc2)CC1 (stereo not drawn)	-1.82%
CCN(CC)C(=O)c1cc(-c2ccccc2OC)on1	-2.65%
CC(C)c1ccc(NC(=O)/C=C/c2ccccc2)cc1	-0.771%
COCCNC(=O)Cn1nc(C)c2sc3ccccc3c2c1=O	-4.26%
O=[N+]([O-])c1ccc(CNC2CCCCCC2)cc1	-4.18%
Cn1c2c(c(=O)n(C)c1=O)C(c1cc(Br)ccc1F)C1=C(O)c3ccccc3C1=N2 (stereo not drawn)	-2.24%
FC(F)(F)c1ccc2nnc(-c3c(Cl)cccc3Cl)n2c1	0.561%
O=C(Cn1nc(Cc2ccncc2)c2ccccc2c1=O)Nc1cc(-c2cccc(Cl)c2)no1	3.59%
O=C(C[n+]1ccccc1)Nc1nc2ccccc2s1	6.84%
CC[C@H](NC(=O)[C@H](Cc1ccccc1)NC(=O)N1CCOCC1)C(=O)C(=O)NCc1ccccc1	1.35%
OC1(c2ccc(Cl)cc2)CCN(Cc2ccccc2F)CC1	-0.0648%

SMILES	% Inhibition @ 10 uM
COc1ccc(C(=O)c2sc3nc(C)cc(C)c3c2N)cc1OC	-4.68%
CC(NC(=O)c1cc([N+](=O)[O-])ccc1Cl)c1ccccc1 (stereo not drawn)	-1.48%
CCNC(=S)N1CCN(CC/N=C2/C=C(O)CC(C)(C)C2)CC1	1.37%
Cc1ccc(CNC(=O)Cn2cc(C(=O)c3ccc(C)cc3)c(=O)c3ccc(C)nc32)cc1	-1.16%
O=[N+]([O-])c1ccccc1CNC1C2CC3CC(C2)CC1C3 (stereo not drawn)	-1.56%
Sc1nnc(-c2cccnc2)o1	-1.46%
C=CCC1NC2(CCCCC2)Cc2cc(OC)c(OC)cc21 (stereo not drawn)	1.43%
O=C(/C=C/c1cccc([N+](=O)[O-])c1)Nc1cccc(C(F)(F)F)c1	-3.44%
COc1cccc(-c2cc(C(=O)N3CCOCC3)no2)c1	-3.36%
CCN(CC)CCN(C)Cc1cccc2ccccc12	-2.21%
O=C(NCCc1ccccc1)C1c2ccccc2Oc2ccccc21	-4.35%
COc1ccc(CCNC(=O)C2CC(=O)N(CCc3ccc(C)cc3)C2)cc1OC (stereo not drawn)	-7.35%
COc1ccc(/C=C(\NC(=O)c2ccc(C)cc2)C(=O)NCC(=O)O)cc1	1.91%
CCSc1nc(O)c2cnn(-c3ccc(C)cc3)c2n1	1.9%
CC(C)CC(C(=O)NCC#N)c1cccc(-c2cccc(-c3ccno3)c2)c1 (stereo not drawn)	-4.72%
Cc1ccnc(NCn2nnc3ccccc32)c1	2.32%
C=CCN1C(=O)N/C(=C/c2ccc(-c3cccc(Br)c3)o2)C1=O	-1.17%
Cc1ccc(OCc2nc(-c3ccc(C(=O)N4CCC(C)CC4)cc3)oc2C)cc1	1.14%
CCOC(=O)c1c(C)c(C(=O)NC(C)CCc2ccccc2)c(C)n1C (stereo not drawn)	3.32%
COC(=O)/C(C#N)=C/c1c(Oc2ccc(C)cc2C)nc2c(C)cccn2c1=O	-3.23%
CCn1c2ccccc2n2cc(-c3ccc4c(c3)OCO4)nc12	0.486%
CCCC[C@@H](CS(=O)(=O)Nc1ccc(OC)cc1)NC(=O)[C@H](CS(=O)(=O)Cc1ccccc1OC(F)F)NC(=O)N1CCOCC1	-8.36%
CC1CCc2c(sc(NC(=O)c3ccccc3Cl)c2C(=O)NCc2ccco2)C1 (stereo not drawn)	-3.98%
CC1(C)CC(O)=C/C(=N/CCN2CCNCC2)C1	-2.8%
Oc1c2c(nc3cc(-c4ccccc4)nn13)CCCC2	-6.7%

SMILES	% Inhibition @ 10 uM
CSc1ccccc1C(=O)N[C@@H](CC1CCCCC1)C(=O)NCC#N	-0.214%
CCOC(=O)c1c(S(=O)(=O)N(CCC(C)C)Cc2ccco2)c(C)n(C)c1C	-5.67%
CCCCCCCC(=O)CCCC(=O)Nc1ccc(C(C)=O)cc1	0.716%
CCN(CC)C(=O)Cn1ncc2c1-c1cc(C)ccc1OC2	0.695%
CCOC(=O)c1c(NC(=O)CN(C)c2ccccc2)sc2c1CCCC2	-6.71%
COc1ccc(-c2nc(CSc3nncn4c3cc3oc(C)cc34)c(C)o2)cc1OC	4.4%
COc1ccc(N2CCN(Cc3ccc(C(=O)O)cc3)CC2)cc1	0.847%
O=C(NC(c1ccccc1)n1nnc2ccccc21)c1ccccc1 (stereo not drawn)	-5.5%
CC(=O)NS(=O)(=O)c1ccc(NC(=O)COc2cc(Cl)c(Cl)cc2Cl)cc1	-3.09%
O=C(Nc1ccccc1)c1ccc(NC(=O)c2cccs2)cc1	-7.02%
COc1ccc(C(O)CCNC(CC(C)C)C(=O)O)cc1 (stereo not drawn)	-1.15%
Cc1noc(C)c1S(=O)(=O)N1CCN(C(c2ccccc2)c2ccc(Cl)cc2)CC1 (stereo not drawn)	-5.37%
C=CCn1c(SCC(=O)N2CCc3ccccc3C2)nc2sc(C)c(C)c2c1=O	-5.01%
O=C(NC1CCSC1=O)c1ccc(Br)cc1 (stereo not drawn)	2.22%
Cc1cc2c(n1-c1ccc(C(=O)NCc3ccco3)cc1)CCC(C)C2 (stereo not drawn)	-5.3%
CC1(C)CC(=O)C2=C(C1)c1c(ccc3ccccc13)NC2c1cccc([N+](=O)[O-])c1O (stereo not drawn)	4.54%
Cc1cccc2sc(NC(=O)c3cncc(Br)c3)nc12	-3.39%
CCOC(=O)c1cc(S(=O)(=O)N2CCN(c3ccccn3)CC2)cn1C	3.92%
Cc1ccc2c(c1)C1CN(C)CCC1N2C(=O)c1cc([N+](=O)[O-])cc([N+](=O)[O-])c1 (stereo not drawn)	7.04%
O=C(Nc1nc(-c2ccc(S(=O)(=O)N3CCCC3)cc2)cs1)c1ccco1	10.5%
Cc1nnc(NC23CC4CC(CC(C4)C2)C3)o1	-2.78%
CC(C)=NOc1nc(N)nc(N(C)C)n1	12%
O=C(O)c1cccc(NS(=O)(=O)c2ccc(C3CCCCC3)cc2)c1	14.3%
CCOc1ccc(C2C3=C(CC(C)(C)CC3=O)N(CC(=O)O)C3=C2C(=O)CC(C)(C)C3)cc1	-2.25%
